# In PubChem BioAssay AID1768 (National Center for Advancing Translational Sciences (NCATS), 2009):
# Screen size: about 270,000 compounds; about 620 (0.23%) were called active. The inconclusive results got no clear call from the source; some entries with a clear call stand among them for comparison. Calls follow the shape of the dose curve; as a rule, active = well fitted inhibition curve with a large enough effect in the polarisation, with a control signal flat (not every such curve was filed as active); inconclusive = small, poorly fitted or top-dose-only effect, or effect the other way, or a change in a side signal; inactive = no such curve, though single readings can be large or run the other way; the % refers to the polarisation. Potencies of inconclusive entries are doubtful fits and often do not repeat. A note “side channel” means that the fit belongs to a control or component signal, not to the main read-out.
# Biological target: Menin (Homo sapiens) (UniProt O00255)
# Test: qHTS Assay for Inhibitors Targeting the Menin-MLL Interaction in MLL Related Leukemias: Competition With Texas Red Labeled MLL-derived Mutant Peptide; as to FP activity change, negative = inhibition: % of control where 0% means no effect
# Details: fluorescence polarization; FP activity change, negative = inhibition: at 61.6 µM (top of the series)
# Potency is read from the fitted curve at half-maximal effect; tags tell the direction and shape of the fitted curve or compound fluorescence and quenching.
# Chain of UniProt O00255 (O00255 whole entry, looked up): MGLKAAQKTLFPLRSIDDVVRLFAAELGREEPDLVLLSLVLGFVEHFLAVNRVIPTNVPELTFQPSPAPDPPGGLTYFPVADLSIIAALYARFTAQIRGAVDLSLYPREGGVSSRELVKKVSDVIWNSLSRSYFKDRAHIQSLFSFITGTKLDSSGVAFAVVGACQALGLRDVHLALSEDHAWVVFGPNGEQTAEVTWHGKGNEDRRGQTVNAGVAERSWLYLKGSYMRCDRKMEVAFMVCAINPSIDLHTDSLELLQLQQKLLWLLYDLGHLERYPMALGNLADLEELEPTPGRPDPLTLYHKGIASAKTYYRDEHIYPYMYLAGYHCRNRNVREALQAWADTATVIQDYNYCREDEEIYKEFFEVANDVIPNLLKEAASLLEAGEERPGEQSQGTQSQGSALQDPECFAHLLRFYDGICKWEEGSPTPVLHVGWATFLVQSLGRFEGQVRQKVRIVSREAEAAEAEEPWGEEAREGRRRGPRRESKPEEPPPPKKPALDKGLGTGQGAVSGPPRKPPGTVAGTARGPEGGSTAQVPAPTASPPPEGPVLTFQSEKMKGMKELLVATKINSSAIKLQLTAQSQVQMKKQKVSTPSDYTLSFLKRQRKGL
SMILES,"FP activity change, negative = inhibition",Potency
C=CCNc1oc(-c2cccc3ccccc23)nc1C#N,inactive: 23%,
Cc1nc2ccccn2c1C(=O)N/N=C/c1ccccc1,,"inconclusive: 25.1 µM [fluorescent, side channel, partial curve]"
O=C(COC(=O)CCCCCN=C1NS(=O)(=O)c2ccccc21)Nc1ccc(Cl)c(Cl)c1,,"inconclusive: 20 µM [quencher, side channel, single point]"
O=C(CSc1ccc(-c2nc3ccccc3[nH]2)cn1)Nc1ccc2c(c1)OCCO2,,"inconclusive: 35.5 µM [inhibitor, single point]"
O=C(N/N=C/c1ccc(Sc2ccccn2)o1)c1cc2ccccc2cc1O,,"inconclusive: 12.6 µM [quencher, side channel, partial curve]"
Cc1cc(C(=O)COC(=O)/C=C/c2cccc(F)c2)c(C)n1C,,"inconclusive: 17.8 µM [fluorescent, side channel, partial curve]"
COc1cc(CNC2CCCC2)c(Br)cc1OCc1ccccc1,,"inconclusive: 10 µM [fluorescent, side channel, partial curve]"
CNC(=S)N(CCc1c(C)[nH]c2ccc(C)cc12)Cc1ccc(OC)c(OC)c1,,"inconclusive: 25.1 µM [quencher, side channel, single point]"
O=C(O)c1ccccc1NC(c1ccccc1)c1ccc(Cl)cc1 (configuration not stated),,"inconclusive: 22.4 µM [quencher, side channel, partial curve]"
COc1ccc(/C=C/C(=O)NC(=S)Nc2ccc(S(=O)(=O)N=C(N)N)cc2)cc1OC,,"inconclusive: 14.1 µM [fluorescent, side channel, partial curve]"
O=C(COc1ccc([N+](=O)[O-])cc1)Nc1ccc(C(=O)Nc2ccccc2C(=O)O)cc1,,"inconclusive: 12.6 µM [quencher, partial curve]"
FC(F)(F)c1cc(-c2ccccc2)nc(-n2cc(Cl)cn2)n1,inactive: -17.5%,
CCN1CCN(CC(O)COc2ccc3c(C)cc(=O)oc3c2)CC1 (configuration not stated),,"inconclusive: 39.8 µM [inhibitor, single point]"
Cc1ccc(S(=O)(=O)N2CCc3c2cc([N+](=O)[O-])cc3[N+](=O)[O-])cc1,,"inconclusive: 14.1 µM [quencher, side channel, partial curve]"
O=C(Nc1ccc(Cl)c(Cl)c1)Nc1ccccc1NS(=O)(=O)c1cccs1,,"inconclusive: 31.6 µM [quencher, side channel, partial curve]"
CC1CC(C)CN(CC(=O)N2c3ccccc3CCc3ccccc32)C1 (configuration not stated),,"inconclusive: 4.47 µM [inhibitor, full curve]"
CCc1ccc(CNCc2cccs2)cc1,,"inconclusive: 15.8 µM [inhibitor, partial curve]"
CC(=O)Nc1cccc(NC(=O)Cc2cccs2)c1,,"inconclusive: 25.1 µM [quencher, side channel, partial curve]"
O=C(O)c1cccc(-c2ccc(/C=N/Nc3nn[nH]n3)o2)c1,inactive: 27%,

SMILES,"FP activity change, negative = inhibition",Potency
COc1ccc(C(=O)/C=C/c2cn(CN3CCN(C)CC3)c3ccccc23)cc1,,"inconclusive: 28.2 µM [quencher, side channel, single point]"
OCCC#Cc1ccc(CN2CCN(Cc3ccsc3)C(CCO)C2)cc1 (configuration not stated),,"inconclusive: 10 µM [quencher, side channel, partial curve]"
O=C1CCCC2=C1C1O[C@](c3ccsc3)(Cc3c1ccc1ccccc31)O2,,"inconclusive: 2.24 µM [quencher, side channel, partial curve]"
CCOCCSc1n[nH]c(=O)n1CCc1ccccc1,,"inconclusive: 35.5 µM [inhibitor, single point]"
COc1cccc(S(=O)(=O)NCc2ccc(C(=O)Nc3ccc(Cl)c(Cl)c3)cc2)c1,,"inconclusive: 2.24 µM [quencher, side channel, partial curve]"
COc1ccc(C2=C(Nc3ccccc3)c3ccccc3C2=O)cc1,,"inconclusive: 17.8 µM [quencher, side channel, partial curve]"
O=C(NCc1ccc2c(c1)OCO2)c1cc(-c2ccccc2)on1,,"inconclusive: 39.8 µM [inhibitor, single point]"
N#Cc1cc(C#N)c(N2CCN(c3ccccn3)CC2)nc1N,,"inconclusive: 39.8 µM [fluorescent, side channel, single point]"
O=c1nc(/C=C/c2cccn2-c2ccc([N+](=O)[O-])cc2)cc(C(F)(F)F)[nH]1,,"inconclusive: 28.2 µM [quencher, side channel, single point]"
O=C(Nc1cccc(Cl)c1)c1cc2c(=O)n3ccccc3nc2s1,,"inconclusive: 11.2 µM [inhibitor, partial curve]"
C[n+]1cc2c3c(ccc2c2ccc4cc5c(cc4c21)OCO5)OCO3,,inactive
C[N+](C)(C)CCCN1C(=O)CCCC1=O,,"inconclusive: 11.2 µM [inhibitor, partial curve]"
Cc1ccc(C(=O)c2c3ccc(N)cc3nn2CCC(N)=O)cc1,,"inconclusive: 39.8 µM [inhibitor, single point]"
O=C(Nc1ccc(Oc2ccc3ccccc3c2)cc1)c1ccco1,,"inconclusive: 10 µM [quencher, side channel, partial curve]"
CN(C)c1ccc(-c2cc(Nc3ccc(F)cc3)ncn2)cc1,,"inconclusive: 20 µM [quencher, side channel, partial curve]"
Cc1ccc(C)c(NC(=S)N(Cc2cccc(Br)c2)CC2CCC(C(=O)O)CC2)c1 (configuration not stated),,"inconclusive: 14.1 µM [quencher, side channel, partial curve]"
O=C(Nc1nnc(-c2ccco2)o1)c1ccc([N+](=O)[O-])s1,,"inconclusive: 28.2 µM [quencher, side channel, partial curve]"
COc1ccc2c(c1)OCC(Cc1ccc(O)c(OC)c1)C2=O (configuration not stated),,"inconclusive: 22.4 µM [quencher, partial curve, poor fit]"
